# Laboratory results from article PMC4336329 (PLoS ONE, 2015).
# Among all 310,000 compounds or so, about 2,200 (0.71%) showed an effect of 50% or more. The effect is printed as a negative number. This is one part of the list.
# Target: human ether-à-go-go-related gene (hERG) potassium channel (human, UniProt Q12809)
# Assay: primary screen, population patch clamp on CHO cells stably expressing hERG
# human ether-à-go-go-related gene (hERG) potassium channel, sequence (Q12809 whole entry, looked up): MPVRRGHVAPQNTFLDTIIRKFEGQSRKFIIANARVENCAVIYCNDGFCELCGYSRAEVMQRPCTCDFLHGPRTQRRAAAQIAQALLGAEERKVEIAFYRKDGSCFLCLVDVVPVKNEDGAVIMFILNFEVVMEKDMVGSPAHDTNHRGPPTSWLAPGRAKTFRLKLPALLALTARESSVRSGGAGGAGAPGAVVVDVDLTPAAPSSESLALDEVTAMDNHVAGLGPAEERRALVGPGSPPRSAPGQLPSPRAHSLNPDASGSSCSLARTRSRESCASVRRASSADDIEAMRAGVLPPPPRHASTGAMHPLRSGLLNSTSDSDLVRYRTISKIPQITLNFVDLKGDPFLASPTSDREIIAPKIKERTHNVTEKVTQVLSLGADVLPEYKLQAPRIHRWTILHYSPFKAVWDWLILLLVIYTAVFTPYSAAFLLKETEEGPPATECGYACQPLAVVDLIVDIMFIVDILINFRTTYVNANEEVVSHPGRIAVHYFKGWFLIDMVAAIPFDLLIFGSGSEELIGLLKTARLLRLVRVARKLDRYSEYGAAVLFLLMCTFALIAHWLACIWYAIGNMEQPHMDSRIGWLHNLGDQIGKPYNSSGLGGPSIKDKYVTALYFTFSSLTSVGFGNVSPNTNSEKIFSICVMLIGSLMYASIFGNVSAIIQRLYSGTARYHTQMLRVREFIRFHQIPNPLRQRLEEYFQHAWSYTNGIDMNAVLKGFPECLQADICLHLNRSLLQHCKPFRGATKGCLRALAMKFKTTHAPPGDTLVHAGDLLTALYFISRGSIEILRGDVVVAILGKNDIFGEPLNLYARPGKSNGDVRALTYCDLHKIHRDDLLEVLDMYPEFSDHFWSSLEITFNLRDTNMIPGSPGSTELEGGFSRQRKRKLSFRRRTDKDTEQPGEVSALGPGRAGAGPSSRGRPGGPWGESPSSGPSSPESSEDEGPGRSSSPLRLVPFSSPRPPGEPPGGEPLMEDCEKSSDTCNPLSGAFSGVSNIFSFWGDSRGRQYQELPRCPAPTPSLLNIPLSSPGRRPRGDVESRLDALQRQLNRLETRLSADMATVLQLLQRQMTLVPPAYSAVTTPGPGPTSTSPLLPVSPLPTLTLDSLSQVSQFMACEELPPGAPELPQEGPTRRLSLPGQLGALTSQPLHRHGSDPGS
row,Structure (SMILES),"hERG current change (%, negative = inhibition) at 1uM"
1,CCOC(=O)c1c(NC(=O)CSc2nc3ccc(OC)cc3[nH]2)sc2c1CC(C)(C)NC2(C)C,6.37%
2,O=C(NCCc1nnc2ccc(N3CCCCCC3)nn12)c1ccccc1F,4.72%
3,CN(C(=O)c1ccc(NC(=O)Cc2ccc(NC(=O)C3CCCN(C(=O)c4ccccc4)C3)cc2)cc1)C1CC1 (stereo not drawn),20.8%
4,O=C(NCc1cccnc1)C1CCC(CNS(=O)(=O)c2cccc3nsnc23)CC1 (stereo not drawn),-10.1%
5,Cc1ccnc(NC(=O)Cc2ccc(-c3ccccc3)cc2)c1,8.82%
6,CS(=O)(=O)c1ccccc1-c1nc(-c2ccc([N+](=O)[O-])cc2)no1,7.08%
7,CC1=C(C(=O)OCc2ccccc2)C(c2ccccc2Br)NC(=O)N1 (stereo not drawn),14.2%
8,CC(C)c1ccccc1NS(=O)(=O)N(C)C,11.2%
9,CCN(CC)CCCNC(=O)c1cc2c(-c3cccc(OC)c3)nn(C)c2s1,0.205%
10,Cc1ccc(Cl)cc1N1CCN(C(=S)NCc2ccco2)CC1,12.1%
11,CCOc1ccc(-n2c(SCc3cc(=O)oc4cc(C)c(C(C)C)cc34)nnc2-c2cccnc2)cc1,1.81%
12,O=C(CSc1ccc2ccccc2n1)NCc1ccc2c(c1)OCO2,6.56%
13,Cc1c(C(=O)OCC[N+]2(C)CCCCC2)oc2ccccc12.[I-],5.34%
14,Fc1ccccc1N1CCN(c2ncnc3nc[nH]c23)CC1,12.1%
15,CCCC12CN3CC(C)(CN(C1)C31CCCCC1)C2=O,10.9%
16,CCC1(c2ccccc2)NC(=O)N(CC(=O)Nc2ccc3c(C)cc(=O)oc3c2)C1=O (stereo not drawn),19.8%
17,O=C(CS(=O)(=O)c1ccc(F)cc1)N1CCN(c2ccccc2)CC1,-9.32%
18,COc1cccc(/C=N/n2c(-c3cc(C)[nH]n3)n[nH]c2=S)c1O,11.1%
19,Cc1ccc(N2CCN(S(=O)(=O)c3ccc(Cl)s3)CC2C)cc1 (stereo not drawn),8.44%

row,Structure (SMILES),"hERG current change (%, negative = inhibition) at 1uM"
1,Cc1ccc(S(=O)(=O)N2CCN(C(=S)NCc3ccc4c(c3)OCO4)CC2)cc1,1.69%
2,Cc1nn(CCC#N)c2nc(C(F)(F)F)[nH]c(=O)c12,-5.04%
3,COc1ccc(N=Cc2ccc(-c3ccccc3)o2)cc1,11%
4,CCOc1ccccc1N(CC(=O)NCCSc1ccccc1)S(C)(=O)=O,8.63%
5,CCCOC(=O)/C=C/c1c(C)[nH]c(=O)[nH]c1=O,1.11%
6,Cc1ccc(NC(=S)NCc2ccc(Cl)cc2)c(OC(F)F)c1,4.09%
7,CC(=O)Nc1ccc(Oc2sc(C(=O)c3ccccc3)c(N)c2C#N)cc1,9.56%
8,CCOc1ccc(C(=O)Nc2nnc(S(=O)(=O)N3CCCCC3)s2)cc1,13.4%
9,CC(C)[C@H](NC(=O)c1ccco1)C(=O)NCc1ccccc1,16.9%
10,CC(=O)Oc1c(C)c(=O)n(C)c2ccccc12,7.71%
11,COc1ccc(Nc2nc(-c3sc(N)nc3C)cs2)cc1,17.4%
12,C(=N\Nc1nc2ccccc2s1)/c1ccco1,8.41%
13,CC1=NN(C(=O)c2ccc(Cn3nc(C)c(Br)c3C)cc2)C(O)(C(F)(F)F)C1 (stereo not drawn),12.1%
14,O=c1[nH][nH]c(=O)c2c(NS(=O)(=O)c3ccccc3)cccc12,18.2%
15,COc1cccc(CSc2nnnn2-c2ccc(O)cc2)c1,0.827%
16,Cc1cc(S(=O)(=O)NCc2ccc(N3CCN(C)CC3)cc2)c(C)s1,-1.23%
17,O=C(C1CC(c2ccc(F)cc2)=NO1)N1CCN(Cc2ccccc2)CC1 (stereo not drawn),-7.94%
18,Cc1c(O)ccc2c(O)c(NC(=O)c3ccc4c(c3)CCC(C)(C)O4)c(=O)oc12,16.7%
19,O=S(=O)(NC(=S)c1ccccc1)c1ccccc1,10.8%

row,Structure (SMILES),"hERG current change (%, negative = inhibition) at 1uM"
1,CC(C(=O)Nc1ccc2c(c1)OCO2)N1CCC(N2CCCCC2)CC1.O=C(O)C(=O)O (stereo not drawn),11.9%
2,O=C(Oc1ccc(NC2=NS(=O)(=O)c3ccccc32)cc1)c1cccnc1,9.43%
3,CCOc1ccc(/C=N/n2c(COc3ccccc3)n[nH]c2=S)cc1OC,12.8%
4,Cc1cc(NC(=O)CSc2nnc(COc3ccccc3)o2)no1,8.73%
5,Cc1cc(NC(=O)/C=C/c2cccc(F)c2)n(-c2nc3ccccc3[nH]2)n1,12.1%
6,Cc1ccc(NC(=O)COC(=O)C2CCC(=O)N2)c(S(=O)(=O)N2CCOCC2)c1 (stereo not drawn),15.2%
7,Cc1c(C(=O)NN2CCOCC2)oc2c1ccc1ccccc12,7.77%
8,CN(C)S(=O)(=O)c1cccc(NC(=O)CNCC2CCCCC2)c1.O=C(O)C(=O)O,11.6%
9,COc1ccc(C(CNC(=O)CNC(=O)c2ccccc2Cl)N2CCCC2)cc1 (stereo not drawn),-4.67%
10,CN(CC(=O)Nc1ccccc1Br)C(=O)CCc1ccccc1,12.4%
11,Cc1ccc(S(=O)(=O)N2CC(=O)Nc3ccccc32)cc1C,2.01%
12,COc1ccc(N(C(C)C(=O)Nc2ccc(S(=O)(=O)N3CCCCC3)cc2)S(C)(=O)=O)cc1 (stereo not drawn),15.7%
13,CCCOc1ccc(/C=N/O)cc1,8.85%
14,O=S(=O)(Nc1cccc(-c2nnco2)c1)c1ccc(F)cc1F,16.9%
15,Cc1cc(NC(=O)CSc2nc(-c3ccc(Br)cc3)nc3c2c(=O)n(C)c(=O)n3C)no1,-5.64%
16,Cc1cc(C)cc(Nc2cc(=O)n(C3CCCCC3)c(=O)[nH]2)c1,12.5%
17,CCOCc1cc(CN2CCCC(CNC(=O)c3ccco3)C2)ccc1OC (stereo not drawn),2.56%
18,Cc1sc(NC(=O)C(C)C)c(C(=O)Nc2ccccc2)c1C,8.88%
19,O=[N+]([O-])c1ccc(/C=N/Nc2ccc3ccccc3c2)o1,8.66%
